Holding throughout (assay): Primary Screen for Target Class Profiling of Small Molecule Inhibitors of Methyltransferases
Assay [1] has as its target Glycine N-methyltransferase (Homo sapiens) (UniProt Q14749). The following applies: purified enzyme, MTase-Glo SAH luminescence; measured here: GNMT inhibition; at 40 µM; stronger effect = lower value. An outline of the steps:
(§1)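 Each enzyme was assayed with SAM and its substrate. SAH formation detected by MTase-Glo luminescence; single-point 40 uM screen[…].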

For assay [2], the target named is Guanidinoacetate N-methyltransferase (Homo sapiens) (UniProt Q14353). The following applies: purified enzyme, MTase-Glo SAH luminescence; measured here: GAMT inhibition; at 40 µM; stronger effect = lower value. The essentials:
as §1

The target in assay [3] is Histamine N-methyltransferase (Homo sapiens) (UniProt P50135). The conditions noted are these: purified enzyme, MTase-Glo SAH luminescence; measured here: HNMT inhibition; at 40 µM; stronger effect = lower value. The essentials:
as §1

The target in assay [4] is Nicotinamide N-methyltransferase (Homo sapiens) (UniProt P40261). The conditions noted are these: purified enzyme, MTase-Glo SAH luminescence; measured here: NNMT inhibition; at 40 µM; stronger effect = lower value. An outline of the steps: as §1
The target in assay [5] is Phenylethanolamine N-methyltransferase (Homo sapiens) (UniProt P11086). The following applies: purified enzyme, MTase-Glo SAH luminescence; measured here: PNMT inhibition; at 40 µM; stronger effect = lower value. The essentials:
as §1

The structures appear in SMILES notation. This is one part of the list. These are further read-outs of the screen, such as a control signal, another cell line or another target. No call is given for them.
On the % scale 0 is the no-effect control and ±100 the full control effect.

Consider `O=C1Nc2ccccc2CC12CCN(Cc1cccnc1)C2` (stereo not given), for which the activity change, negative = inhibition in assay [1] is -6.7%; in assay [2], -1.81%; in assay [3], -0.683%; in assay [4], -5.54%; in assay [5], -26.7%.

With `CSc1ccc(C2c3cccn3-c3ccccc3CN2C(=O)Nc2cccc(SC)c2)cc1` (stereo not given), the activity change, negative = inhibition in assay [1] is -1.71%; in assay [2], -3.27%; in assay [3], -1.15%; in assay [4], -7.54%; in assay [5], -2.52%.

As to `COc1cccc(CNC(=O)N2Cc3ccccc3-n3cccc3C2c2cccc(Cl)c2)c1` (stereo not given), the activity change, negative = inhibition in assay [1] is 5.23%; in assay [2], 0%; in assay [3], -0.291%; in assay [4], -4.2%; in assay [5], 2.8%.

Consider `COc1ccccc1-n1cc(C2=CCN(CCOCCO)CC2)cn1`, for which the activity change, negative = inhibition in assay [1] was -12%; in assay [2], -7.87%; in assay [3] it was -36.5%; in assay [4], -10.8%; in assay [5], 8.32%.

Take `Cc1ccc(NC(=O)N2Cc3ccccc3-n3cccc3C2c2cccc(Cl)c2)cc1C` (stereo not given): the activity change, negative = inhibition in assay [1] is 10.8%; in assay [2], 4.22%; in assay [3] it was 2.35%; in assay [4] it was -1.07%; in assay [5] it was 2.19%.

As for `CCC1c2cccn2-c2ccccc2CN1C(=O)NC1CCCC1` (stereo not given), the activity change, negative = inhibition in assay [1] was -5.86%; in assay [2] it was 1.77%; in assay [3], -9.34%; in assay [4] it was -20.8%; in assay [5], -6.38%.

Regarding `Cc1ccc(C2c3cccn3-c3ccccc3CN2C(=O)Nc2cccc(Cl)c2C)cc1` (stereo not given), the activity change, negative = inhibition in assay [1] was 2.15%; in assay [2] it was 4.22%; in assay [3] it was -4.01%; in assay [4], 2.91%; in assay [5], 1.73%.

For the molecule `Cc1cccc(C2c3cccn3-c3ccccc3CN2C(=O)Nc2cccc(Cl)c2)c1` (stereo not given), the activity change, negative = inhibition in assay [1] was 9.9%; in assay [2] it was 2.62%; in assay [3], 1.73%; in assay [4] it was -1.57%; in assay [5], 4.55%.

For `Cc1ccc(NC(=O)N2Cc3ccccc3-n3cccc3C2c2cccs2)c(Cl)c1` (stereo not given), the activity change, negative = inhibition in assay [1] is 6.69%; in assay [2] it was 4.02%; in assay [3], -1.39%; in assay [4], -6.42%; in assay [5], 1.29%.

Regarding `C=C1[C@@H](C)[C@H]2[C@H](Cc3ccccc3)NC(=O)[C@]23OC(=O)/C=C/C(=O)CCC[C@@H](C)C/C=C/[C@H]3[C@@H]1O`, the activity change, negative = inhibition in assay [1] is 5.38%; in assay [2], -2.35%; in assay [3], 8.54%; in assay [4], -14%; in assay [5], -0.799%.

For `C=C1[C@@]23C(=O)O[C@H](C)[C@]24O[C@@]2(C(=C)[C@]5(C=CC(=O)OC5(C)C)CC[C@]32C)[C@H](O)[C@@]1(C)OC4=O`, the activity change, negative = inhibition in assay [1] is 0%; in assay [2] it was -1.78%; in assay [3], 9.41%; in assay [4], -16.9%; in assay [5], -10.5%.

Take `COC(=O)c1cccc(NC(=O)N2Cc3ccccc3-n3cccc3C2c2ccccc2Cl)c1` (stereo not given): the activity change, negative = inhibition in assay [1] was 2.33%; in assay [2], -6.07%; in assay [3], 4.13%; in assay [4], -7.93%; in assay [5], -1.34%.

As for `O=C(Nc1ccc(Cl)cc1)N1Cc2ccccc2-n2cccc2C1c1ccccc1` (stereo not given), the activity change, negative = inhibition is 9.65% in assay [1]; 0% in assay [2]; 2.45% in assay [3]; -1.82% in assay [4]; 3.14% in assay [5].

With `Cc1ccc(Cl)cc1NC(=O)N1Cc2ccccc2-n2cccc2C1C(C)C` (stereo not given), the activity change, negative = inhibition in assay [1] was determined as 0.428%; in assay [2] it was 0.812%; in assay [3], 2.31%; in assay [4], 5.42%; in assay [5], 6.45%.

On to `CCCNC(=O)N1Cc2ccccc2-n2cccc2C1c1ccc(SC)cc1` (stereo not given), for which the activity change, negative = inhibition in assay [1] is -0.532%; in assay [2], 3.15%; in assay [3] it was -2.76%; in assay [4] it was -1.48%; in assay [5] it was 1.8%.

With `O=c1[nH]c2ccc(Cl)cc2c(N[C@@H]2CN3CCC2CC3)c1-c1nc2ccccc2[nH]1`, the activity change, negative = inhibition is -10.8% in assay [1]; -0.731% in assay [2]; -0.242% in assay [3]; -40.7% in assay [4]; -7.83% in assay [5].

In the case of `Cc1cccc(C2c3cccn3-c3ccccc3CN2C(=O)Nc2ccc(C)cc2Cl)c1` (stereo not given), the activity change, negative = inhibition in assay [1] was 7.63%; in assay [2] it was 0%; in assay [3] it was 3.35%; in assay [4], -3.93%; in assay [5], 1.84%.

As for `O=C(c1ccncc1)N1C2CCC1CN(Cc1cccnc1)C2`, the activity change, negative = inhibition was 1.21% in assay [1]; -1.95% in assay [2]; 1.19% in assay [3]; -5.54% in assay [4]; -4.57% in assay [5].

On to `CSc1ccc(C2c3cccn3-c3ccccc3CN2C(=O)Nc2cc(C)ccc2C)cc1` (stereo not given), for which the activity change, negative = inhibition in assay [1] is 6.3%; in assay [2], 1.94%; in assay [3], 1.25%; in assay [4], 3.88%; in assay [5] it was 6.64%.

As for `COC(=O)C12C(=O)C(C)(O)C(=O)C1(C)C(C)=CC1C34CCC(OC3=O)C(C)(C)C4CCC12C` (stereo not given), the activity change, negative = inhibition in assay [1] is 0%; in assay [2], -7.03%; in assay [3] it was 4.33%; in assay [4] it was -19.8%; in assay [5], -15.8%.

As to `COc1cccc(CNC(=O)N2Cc3ccccc3-n3cccc3C2c2ccc(N(C)C)cc2)c1` (stereo not given), the activity change, negative = inhibition in assay [1] was 7.89%; in assay [2] it was 1.18%; in assay [3], 3.58%; in assay [4], 2.15%; in assay [5] it was 6.14%.

Take `C=CC(C)(O)CC/C=C(\C)C(=O)O[C@H]1[C@H](O)[C@@H](CO)O[C@@H](OC(=O)[C@]23CCC(C)(C)CC2C2=CCC4[C@@]5(C)CC[C@H](O[C@@H]6O[C@H](CO[C@@H]7OC[C@H](O)[C@H](O)[C@H]7O[C@@H]7OC[C@@H](O)[C@H](O)[C@H]7O)[C@@H](O)[C@H](O)[C@H]6O)C(C)(C)C5CC[C@@]4(C)[C@]2(C)CC3)[C@@H]1OC1OC(C)C(O[C@@H]2OC[C@@H](O)[C@H](O[C@@H]3OC[C@@H](O)[C@H](O)[C@H]3O)[C@H]2O)C(O)C1O` (stereo not given in full): the activity change, negative = inhibition was determined as 7.41% in assay [1]; 25.2% in assay [2]; 8.53% in assay [3]; 5.97% in assay [4]; 11.9% in assay [5].

Regarding `Cc1ccc(Cn2nc(C(=O)N[C@@H]3C(C)(C)[C@@H]4CC[C@@]3(C)C4)cc2-c2ccc(Cl)c(C)c2)cc1`, the activity change, negative = inhibition is 2.04% in assay [1]; -24.7% in assay [2]; 9.4% in assay [3]; -29.9% in assay [4]; -4.27% in assay [5].

`CCOc1ccc(C2c3cccn3-c3ccccc3CN2C(=O)NCc2ccc(F)cc2)cc1` (stereo not given): the activity change, negative = inhibition in assay [1] was -2.44%; in assay [2] it was 4.19%; in assay [3], 3.69%; in assay [4], -2.16%; in assay [5], 3.1%.

As for `COc1ccccc1NC(=O)N1Cc2ccccc2-n2cccc2C1c1cc(F)cc(F)c1` (stereo not given), the activity change, negative = inhibition amounted to 4.95% in assay [1]; 0% in assay [2]; 4.07% in assay [3]; 0.717% in assay [4]; 1.41% in assay [5].

In the case of `O=C(NCc1ccc(F)cc1)N1Cc2ccccc2-n2cccc2C1c1ccc(F)cc1` (stereo not given), the activity change, negative = inhibition in assay [1] is -0.794%; in assay [2], 0%; in assay [3], -1.52%; in assay [4] it was -4.49%; in assay [5], 0.985%.

Regarding `CN(C)CCc1c[nH]c2ccc(CN3CCN(C)S3(=O)=O)cc12`, the activity change, negative = inhibition was 2.61% in assay [1]; -3.26% in assay [2]; -32.9% in assay [3]; -11.2% in assay [4]; -6.19% in assay [5].

With `CCc1ccc(C2c3cccn3-c3ccccc3CN2C(=O)NCc2ccco2)cc1` (stereo not given), the activity change, negative = inhibition in assay [1] amounted to 13%; in assay [2], 0%; in assay [3], 6.8%; in assay [4], 3.55%; in assay [5], 7.94%.
